Laboratory results published in the supplement of paper PMC12632987.
Whole data set: some 4,500 sequences, median “median log2 fold change of GCK-ALFA target abundance (FLAG IP / Myc IP barcode read proportion)” near 0.078, cut for the lowest 2% near -0.6. The list shows a part of the results.

B1: GBRAP_52_5958 (protein)
chain: MREKMKKLVEEALELKKEGKEEELEKLLREIAKTLNEEELELLAEEMAERVEESNLEEAEILLDIALRLGDILIEEGRDEGIASYIEARVAAAAYKLEQK
B2: GBRAP_160_4455 (protein)
chain: SERLKKYLEEIDEIREEAKELIEGETHEQRVVIIEGLFGEFLMELVEDERISDEVEDKVAEIIDELIETLRANPDLTEEEIKELIDEAAEKIKEVLKKEL
B3: GBRAP_79_6749 (protein)
chain: GEKEARKALAEALKVVLPELTEEELEKMVEDDEALKAALERAGLSREMADELLEAIKKIPEYAKELFEKAVKRMEGLPAEEKRDILEATVAAVIYEAEKL
B4: GBRAP_11_2874 (protein)
chain: KKEKLKKMKELAEKLAKALKRLLEEGVDNEELRKEIRELVKELKKLVEEYGDPAEKKLVEILAELVEEAEEDPENAEQYVKEALAAAQVLAGQYLLKLEE
B5: GBRAP_83_6919 (protein)
chain: KEEIVVAGPGDRAEEMADIVIDLTKEEGYEVDVEIIVTKEEKEKVLEMVKRLAEAGIETKITILAKGMTEEEAEELKKKLEEIAKEHGVKIEIEVYVIEE
B6: GBRAP_52_6061 (protein)
chain: SEEKIKKLAEEIYKKIKAGDLEGALKLLEEAVEELSKEEITELLKLTAKLVAKGNDEQHELFVELLDEFEDIMIEKGISEEEALIIVGEAEATLAKEVAK
B7: GBRAP_52_6294 (protein)
chain: SMEEVEKKAKEIVELVKEGKLEEAIELAKKFVEENSLEEALELGKLLIEKIEELTPEEAELMLEVIEALAEEIEKEFGAEEEADILEAEAAAAAYKVLQK
B8: GBRAP_160_4712 (protein)
chain: SEVAEELKKYVEEEFKKAKELIKGETIEQRAIIVEGTIGEIIMELFENPEASDELIDEVDKIGDELVEYIKKNPDLTEEEIEELIDEATKKIKEAIEKYV
B9: GBRAP_11_2822 (protein)
chain: EKEKLKELAKKARELAKEIEKLIKSGNVTEEELKELLKKAKELLKFTEEYGDKDKAKLAKIALENIEEAIKNKENLKEYLENALAAVRVLEGDYLLDYEE
B10: GBRAP_160_4020 (protein)
chain: SEEREKLIEEIRELIEETKEEIKGLSPEERLTLVRGMTGEIIQLAEESPVISDETEDKIAEIADETIKRFEANKNASLEEWEKLLEEFLEEIEELIKEEE
B11: GBRAP_74_6502 (protein)
chain: QEARLAAARAAATLEEVLALLDWAVAHIDELDQETLDAIARRAAAAIERAMAAGDWEGLRRLVEAAERLLVALPGERLNAAVAELIAAMQRAEALLAAQE
B12: GBRAP_128_3400 (protein)
chain: MQEELLKEAKELIDKIVEADVEEARKYAEELMELLKKMNKETREEVAEYLKEKLPELTAEKLEVVADVFRENRPKDDPELANIVADMEVEALNEAVEKEE
B13: GBRAP_42_5730 (protein)
chain: MLAITLEIVAETQEEALRMVRAALEEDERLLEERGVVVEIEVAVPEGLSPEILELVERSRERAEEADHESEWVGVANTLEEVPRTIRAVADEALEALEEE
B14: GBRAP_52_5859 (protein)
chain: MVEEAVELLKKAIEAMKEGKEEEAKEILKEIVENFDEETIVAAAEKLAEEMEGWSKEDAEAAFKTAELLGKILEEAGYDEEVVTLIEDTIGAAVARVEAR
B15: GBRAP_52_6062 (protein)
chain: SEEKIEKLAKEIYEAIKKGDKDKALELLKKAIEELSIEEIRELLIKTAKLVAKGNDEEHELFVEILDEFEDDMIEKGISEEEALLIVGDAEAELAKEVAK
B16: GBRAP_52_6358 (protein)
chain: ALEEALALLREALAAVAAGDEEEARAILEELVATYSEETILAAFERLAEEVADKDVATAEALLETALLLADVMDEAGRDPAVADDIEAIAARTYMAVKAK
B17: GBRAP_160_3967 (protein)
chain: SEEVEALIEEIEELFEEAKELIEGESFEERLTIIRVMVGEVLLLADESPLVSDETEEKIAEIGDELIETLEENPDLSLEEIKELIEEAREKIKEVILEEH
B18: GBRAP_122_2951 (protein)
chain: GSEEEVEKAVEEAMKRAEEGDPAKAILEALREAAERFSEEDLIEFARRLAEEARKRGIEAEAAKAFAEAAIWLLEERPELREAADELLELAIELLDLLEE
B19: GBRAP_184_5290 (protein)
chain: KVKHVVIEAENGEEAIKKIEEEAEKAKKEGVKLDIDLFLKNVNIEEFEKIMKLLKKLKEEGVIKSATVELLDEVSEEELDKFVKIADEAGVKLVVALSDE

molecular target: GABARAP, O95166; experiment: median log2 fold change of GCK-ALFA target abundance (FLAG IP / Myc IP barcode read proportion) (log2 ratio); each designed protein is fused to an ALFA-tag nanobody in HEK293 cells to bring the named protein to FLAG-tagged glucokinase (GCK); Myc marks an untargeted standard; higher = target protein stabilised (more abundant); details: target protein: 3xFLAG-MCP-GCK-ALFA reporter; HEK293 landing pad (RPLP)
Sequence (O95166 whole entry, the tested form may be a part): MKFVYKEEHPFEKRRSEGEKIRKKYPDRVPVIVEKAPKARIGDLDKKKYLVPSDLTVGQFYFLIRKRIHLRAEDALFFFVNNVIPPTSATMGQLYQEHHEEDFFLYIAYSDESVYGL
Procedure, shortened: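 Binders fused to an ALFA nanobody were recombined as a library into HEK293 landing-pad cells, which were induced with 2 μg mL^−1 doxycycline and then transfected to express a FLAG-tagged target and a Myc-tagged standard. After 48 h, circular RNA barcodes recovered by anti-FLAG and anti-Myc immunoprecipitation of lysates were reverse transcribed, amplified and sequenced. Each binder's target abundance is the median log2 ratio of FLAG to Myc barcode read proportions, from barcodes present at ≥10^−7 in both replicates, binders carrying ≥3 barcodes per replicate, a 10^−6 pseudocount and pooled replicates.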

Binder | median log2 fold change
B1 | -0.199
B2 | -0.17
B3 | 0.226
B4 | -0.153
B5 | 0.259
B6 | -0.546
B7 | 0.0653
B8 | 0.019
B9 | -0.0567
B10 | 0.19
B11 | -0.034
B12 | 0.254
B13 | -0.122
B14 | -0.0198
B15 | -0.215
B16 | -0.632
B17 | -0.498
B18 | -0.311
B19 | 0.0927
